Experimental data: patent publication US11944624B2, “Peptide and small molecule agonists of EphA and their uses” (CASE WESTERN RESERVE UNIVERSITY, priority 2017, dated 2024)
Some entries share one result that the patent states for a list of compounds.

Target: T1, EphA2 (Homo sapiens, UniProt P29317)
Assay: EphA2 activation in MDA-231-A2 cells (pEphA/B immunoblot)
Format: cell-based
Parameters: expressed in transfected cells; host or cells: MDA-MB-231 (MDA-231-A2 / MDA-MB-231-A2), puromycin selected
Conditions: dose response
Method: Cells were plated in 24-well dishes at a density of 100,000 cells/well and grown for 24 hours prior to stimulation with appropriate compounds and ephrins for the given amounts of time. Compounds were prepared in DMSO at 500 times the final concentrations and 0.2% DMSO was used as vehicle control. Following treatment, cells were lysed directly in SDS Gel Loading Buffer and immunoblotted as described previously. Immunoprecipitation and immunofluorescence staining was performed as described. For immunoprecipitation, 300,000 cells/well were plated in 6-well dishes and lysed in modified RIPA Buffer (20 mM Tris-HCl pH 7.4, 20 mM NaF, 150 mM NaCl, 10% glycerol, 0.1% SDS, 0.5% DCA, 2 mM EDTA, 1% Triton X-100) following treatment. Either 10 μg of ephrin-A1-Fc, or […] of EphA2 mouse monoclonal antibody (Clone D7, Millipore) were used, and mouse IgG was used as a negative control for EphA2 IP. To identify small molecule agonists for EphA2, we took a structure-based in silico screening approach. […] This notion was confirmed recently by determination of the crystal structure of the EphA2/ephrin-A1 complex (FIG. 1B). […] To confirm specific EphA2 activation by doxazosin, we analyzed levels of activated Eph receptor in MDA-231-A2 cells following treatment with multiple doses of doxazosin and EphA2 immunoprecipitation.

T1 sequence (P29317 24-976): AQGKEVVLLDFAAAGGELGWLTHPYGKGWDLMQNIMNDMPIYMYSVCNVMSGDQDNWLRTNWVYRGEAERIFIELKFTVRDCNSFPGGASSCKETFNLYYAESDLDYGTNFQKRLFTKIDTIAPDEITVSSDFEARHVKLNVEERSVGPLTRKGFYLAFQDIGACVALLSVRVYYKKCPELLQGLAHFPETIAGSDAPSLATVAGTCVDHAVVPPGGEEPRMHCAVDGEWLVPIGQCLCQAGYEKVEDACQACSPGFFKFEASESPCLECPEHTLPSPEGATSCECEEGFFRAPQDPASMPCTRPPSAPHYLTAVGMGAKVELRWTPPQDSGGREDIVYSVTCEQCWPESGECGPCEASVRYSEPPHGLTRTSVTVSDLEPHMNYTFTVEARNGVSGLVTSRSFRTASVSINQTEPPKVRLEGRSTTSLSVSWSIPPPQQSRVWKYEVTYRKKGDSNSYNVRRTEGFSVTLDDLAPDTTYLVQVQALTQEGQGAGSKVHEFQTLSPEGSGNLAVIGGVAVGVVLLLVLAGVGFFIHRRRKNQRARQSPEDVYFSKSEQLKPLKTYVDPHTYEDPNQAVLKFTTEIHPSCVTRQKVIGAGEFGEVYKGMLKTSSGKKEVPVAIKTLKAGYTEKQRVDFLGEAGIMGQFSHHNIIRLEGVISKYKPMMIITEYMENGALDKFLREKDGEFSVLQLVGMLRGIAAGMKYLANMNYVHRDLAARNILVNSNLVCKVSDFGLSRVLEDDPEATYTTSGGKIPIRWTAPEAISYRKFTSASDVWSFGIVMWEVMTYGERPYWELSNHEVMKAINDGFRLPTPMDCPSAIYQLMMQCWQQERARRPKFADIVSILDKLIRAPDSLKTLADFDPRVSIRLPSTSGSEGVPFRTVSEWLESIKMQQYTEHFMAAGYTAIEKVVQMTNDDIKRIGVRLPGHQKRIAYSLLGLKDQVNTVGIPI

Which “concentration at which EphA2 activation is detectable” value does the source give for `CC(CCc1ccc(O)cc1)NCCc1ccc(O)c(O)c1` (stereo not drawn) [Dobutamine] here?
The value was > 500 mM.

`CC(CCc1ccccc1)NCC(O)c1ccc(O)c(C(N)=O)c1` (stereo not drawn) [Labetalol] was tested. Which “concentration at which EphA2 activation is detectable” value did it give?
Its value is > 500 mM.

Target: T1, EphA2
Assay: EphA2 activation in MDA-MB-231-A2 cells (phosphorylated/total EphA2, Example 2)
Format: cell-based
Parameters: expressed in transfected cells; host or cells: MDA-MB-231 (MDA-231-A2 / MDA-MB-231-A2), puromycin selected
Conditions: MDA-MB-231-A2 cells, 2, 10 and 50 μM, 30 min
Method: To evaluate the compounds, we utilized a MDA-MB-231 breast cancer cell line which overexpresses EphA2 receptor (MDA-MB-231-A2). The ratio of phosphorylated EphA2 protein over total EphA2 protein was measured after treatment with the various compounds as the readout for receptor activation. All the compounds were examined with doses of 2, 10, and 50 μM, and we used 50 μM Doxazosin and 0.5% DMSO as the positive and negative control, respectively (FIG. 27). […] Inspired by the dimer design, we also generated dimer structure based on the piperazine ring as the core as illustrated by compounds 25 and 26.
MDA-MB-231 EphA2-overexpressing cells were plated in 12-well dishes at a density of 100,000 cells/well and grown for 24 hours prior to stimulation with appropriate compounds and ephrins for 30 min and 10 min, respectively. Compounds were prepared in DMSO at 200 times the final concentrations and 0.5% DMSO was used as vehicle control. Following treatment, cells were washed and lysed in modified RIPA Buffer (20 mM Tris-HCl pH 7.4, 20 mM NaF, 150 mM NaCl, 10% glycerol, 0.1% SDS, 0.5% DCA, 2 mM EDTA, 1% Triton X-100, 2 mM Na3VO4, and protease inhibitors, including 1 mM phenylmethylsulphonyl fluoride, and 2 μg/ml each of aprotinin and leupeptin) for 20 min, followed by immunoprecipitation. For immunoprecipitation, lysates were combined with 10 μg of ephrin-A1-Fc and 10-15 μl of Gamma-Bind Protein G beads (GE Healthcare Bioscience, Pittsburgh, PA) and rotated for 3 hours at 4° C. 10 μg of human unconjugated Fc was used as a negative control. Beads were pelleted at 9,000 rpm for 2 min at 4° C., and washed twice with 1 ml of IP Wash Buffer (20 mM Tris, pH 7.4, 10% glycerol, 50 mM NaCl, 0.2% Triton X-100, 0.5 mM Na3VO4, 0.5 mM PMSF). All wash buffer was removed and beads were resuspended in 25 μl of 4× LDS Loading Buffer (Thermo Fisher, Grand Island, NY) with 4 μl of 10× Bolt Sample Reducing Agent (Thermo Fisher), followed by Western Blotting. Samples were boiled 5 min and run on 4-12% Bis-Tris Plus gels (Thermo Fisher), followed by transfer to Immobilon-P PVDF membranes (Millipore, Billerica, MA). Membranes were blocked 1 hr at room temperature in 3% BSA in TBS containing 0.05% Tween-20 (TBS-T) followed by overnight incubation with pEphA/B (1:500) and EphA2 (Santa Cruz) (1:1000) primary antibodies. Membranes were washed in TBS-T and incubated with goat anti-rabbit-HRP (1:5000) secondary antibody 1 hr at room temperature, followed by washing and developing with Luminol Reagent (Santa Cruz). Band intensities were quantified using Quantity One software (Bio-Rad, Hercules, CA).

With `COc1cc2nc(N3CCN(C(=O)C4CCCCC4)CC3)nc(N)c2cc1OC` [Compound 17, (4-(4-amino-6,7-dimethoxyquinazolin-2-yl)piperazin-1-yl)(cyclohexyl)methanone] as the compound, how does the “EphA2 activation compared to 50 μM Doxazosin” value read?
The value was “decreased activity”.

Which “EphA2 activation compared to 50 μM Doxazosin” value does the source give for `COc1cc2nc(N3CCN(C(=O)CCCCC(=O)N4CCN(c5nc(N)c6cc(OC)c(OC)cc6n5)CC4)CC3)nc(N)c2cc1OC` [Compound 28, 1,6-bis(4-(4-amino-6,7-dimethoxyquinazolin-2-yl)piperazin-1-yl)hexane-1,6-dione] here?
The value was “decreased activity”.

For `COc1cccc(CC(=O)N2CCN(c3nc(N)c4cc(OC)c(OC)cc4n3)CC2)c1` [Compound 5, 1-(4-(4-amino-6,7-dimethoxyquinazolin-2-yl)piperazin-1-yl)-2-(3-methoxyphenyl)ethanone], which “EphA2 activation compared to 50 μM Doxazosin” value is on record?
The value was “comparable to Doxazosin”.

Which “EphA2 activation compared to 50 μM Doxazosin” value does the source give for `COc1cc2nc(N3CCN(C(=O)c4ccco4)CC3)nc(N)c2cc1OC` [Compound 18, (4-(4-amino-6,7-dimethoxyquinazolin-2-yl)piperazin-1-yl)(furan-2-yl)methanone] here?
Its value is “decreased activity”.

With `COc1cc2nc(N3CCN(C(=O)c4cccs4)CC3)nc(N)c2cc1OC` [Compound 19, (4-(4-amino-6,7-dimethoxyquinazolin-2-yl)piperazin-1-yl)(thiophen-2-yl)methanone] as the compound, how does the “EphA2 activation compared to 50 μM Doxazosin” value read?
Its value is “decreased activity”.

How did the “EphA2 activation compared to 50 μM Doxazosin” value turn out when `COc1cc2nc(N3CCN(C(=O)c4ccncc4)CC3)nc(N)c2cc1OC` [Compound 10, (4-(4-amino-6,7-dimethoxyquinazolin-2-yl)piperazin-1-yl)(pyridin-4-yl)methanone] was run?
The value was “decreased activity”.

`CCCC(=O)N1CCN(c2nc(N)c3cc(OC)c(OC)cc3n2)CC1` [Compound 16, 1-(4-(4-amino-6,7-dimethoxyquinazolin-2-yl)piperazin-1-yl)butan-1-one] was tested. Which “EphA2 activation compared to 50 μM Doxazosin” value did it give?
Its value is “decreased activity”.

Which “EphA2 activation compared to 50 μM Doxazosin” value does the source give for `COc1cc2nc(N3CCN(C(=O)C(C)c4ccccc4)CC3)nc(N)c2cc1OC` (stereo not drawn) [Compound 8, 1-(4-(4-amino-6,7-dimethoxyquinazolin-2-yl)piperazin-1-yl)-2-phenylpropan-1-one] here?
The value was “comparable to Doxazosin”.

With `CCC(=O)N1CCN(c2nc(N)c3cc(OC)c(OC)cc3n2)CC1` [Compound 15, 1-(4-(4-amino-6,7-dimethoxyquinazolin-2-yl)piperazin-1-yl)propan-1-one] as the compound, how does the “EphA2 activation compared to 50 μM Doxazosin” value read?
Its value is “decreased activity”.

With `COc1cc2nc(N3CCN(C(=O)c4ccccn4)CC3)nc(N)c2cc1OC` [Compound 9, (4-(4-amino-6,7-dimethoxyquinazolin-2-yl)piperazin-1-yl)(pyridin-2-yl)methanone] as the compound, how does the “EphA2 activation compared to 50 μM Doxazosin” value read?
Its value is “decreased activity”.

Which “EphA2 activation compared to 50 μM Doxazosin” value does the source give for `COc1cc2nc(N3CCN(C(=O)c4ccno4)CC3)nc(N)c2cc1OC` [Compound 20, (4-(4-amino-6,7-dimethoxyquinazolin-2-yl)piperazin-1-yl)(isoxazol-5-yl)methanone] here?
Its value is “decreased activity”.

`COc1cc2nc(N3CCN(C(=O)Cc4ccc5ccccc5c4)CC3)nc(N)c2cc1OC` [Compound 7, 1-(4-(4-amino-6,7-dimethoxyquinazolin-2-yl)piperazin-1-yl)-2-(naphthalen-2-yl)ethanone] was tested. Which “EphA2 activation compared to 50 μM Doxazosin” value did it give?
Its value is “comparable to Doxazosin”.

`COc1ccc(C(=O)N2CCN(c3nc(N)c4cc(OC)c(OC)cc4n3)CC2)cc1` [Compound 21, (4-(4-amino-6,7-dimethoxyquinazolin-2-yl)piperazin-1-yl)(4-methoxyphenyl)methanone] was tested. Which “EphA2 activation compared to 50 μM Doxazosin” value did it give?
The value was “decreased activity”.

How did the “EphA2 activation compared to 50 μM Doxazosin” value turn out when `COc1ccc(CC(=O)N2CCN(c3nc(N)c4cc(OC)c(OC)cc4n3)CC2)cc1` [Compound 4, 1-(4-(4-amino-6,7-dimethoxyquinazolin-2-yl)piperazin-1-yl)-2-(4-methoxyphenyl)ethanone] was run?
Its value is “comparable to Doxazosin”.

With `COc1cc2nc(N3CCN(C(C)=O)CC3)nc(N)c2cc1OC` [Compound 14, 1-(4-(4-amino-6,7-dimethoxyquinazolin-2-yl)piperazin-1-yl)ethanone] as the compound, how does the “EphA2 activation compared to 50 μM Doxazosin” value read?
The value was “decreased activity”.

For `COc1cc2nc(N3CCN(C(=O)Cc4ccccc4)CC3)nc(N)c2cc1OC` [Compound 6, 1-(4-(4-amino-6,7-dimethoxyquinazolin-2-yl)piperazin-1-yl)-2-phenylethanone], which “EphA2 activation compared to 50 μM Doxazosin” value is on record?
Its value is “comparable to Doxazosin”.
